The source gives no read counts; variants with many changes may rest on few reads.
B1: LINE1-mini (parent)
chain: GGCAGAGCUCAACACAGCGUGGCAAAGUGGCUGUGGCUAGACUGCC

Variants of: B1
Experiment: self-cleavage, relative activity (ratio to wild type); higher = more cleavage; in vitro, sequencing; the parent is a self-cleaving ribozyme

Row | Variant | self-cleavage
1 | GGCAGAGCUCACCACAGCGUGGAAAAGUGGCUGUGGCUAGGCUGCC | 0
2 | GGCAGAGCUCCACACAGAGUGGCAAAGUGGUUGUGGCUAGACAGCC | 0.01
3 | GGCAGAGCUCAACCCAGCGUGGCAAAAUGGCUGUGGCAAGAUUGCC | 0.04
4 | GGCAGAGCUCUACACAACGUGGCAAAGUGGCUGUGGCAAUACUGCC | 0.02
5 | GAGAGAGGACAACACAGCCUGGCAAAGCGACUGUGACUAGACUGCC | 0.24
6 | GGCAGAGUUCUACACAGCGUGACAAAGUGGCUGUGGCUAGACUGCC | 0.01
7 | GGCAGAGAUCAACACAGCGUGGCAAAUUGGCUGUGGCUUGACUGCC | 0.04
8 | GGUACAGCUCAACACAGCGUGGCAAAGUGUCUGUGGUUAGACUGCC | 0.2
9 | GGCAGAGCUCAACACAGCGUGGCGAAGUGGUUGUGGCUAGUCUGCC | 0.1
10 | GGCAGAGGUCAACACAGCGUGGCAAAGUGGUUGUAGCUUGACUGCC | 0.03
11 | GGCAGAGCUCAACACAGCGUGGCAACGAGGCUGAGGCUAGACUGCC | 0.11
12 | GGUAGAGCUCAACACAGGGUGGCAAAGUGCCUGUGGCUAGACUGCC | 1.06
13 | GGCAGAGCUCAUCACAGCGUGGCCAAGUGGCUGUGUCUAGACUGAC | 0.02
14 | GGCAGAGCUCCACACAGCGUGGCAUAGUGGCUGUGGCUAGACUACC | 0.08
15 | GGCAGAACUCAACACAGUGGGGCAAAGUGGCUGUGGCUAGACUGCC | 0.28
16 | GGCAGAGAUCAACACAGCGUGGUAAAGUGGGUGUGGCCAGACUGCC | 0.17
17 | GGCAGAACUCAACACAGCGUGGCAACGUGGCUGUGGCUAUAUUGAC | 0.09
18 | GGCAGAGCUAAACAAAGCGUGGCAAAGUGGUUGUGGCUCGACUGCC | 0.02
19 | GGCAGAGCUCAACACAGCGUGGCAGAGUUGCUGUGGCUGGCCUGCC | 0.01

Row | Variant | self-cleavage
20 | GGCAGAUCUCAACACAGCUUGGCAAAGUGGCUGUGUCUAGACUGCC | 0.04
21 | GACAGAGCUGAACACAGCGUGGCGAAGUGGCUGUGGCUAGACUGCC | 0.05
22 | GGCAGAGCGCAACACAGCGUGGCAAAGGGGCUGUGGGUAGACUGCC | 0.01
23 | GGCAGAGUUCAACUCAGCGUGGCAAAGUGUCGGUGGCUAGACUGCC | 0.14
24 | GUAAGAGCUCAACACAGCGUGGCAAAGUGGCUGUGGCUAGAGUGCC | 0.03
25 | GGCAGAGCUCAACACAGCGUGGAAAAGUCUCUGUGGCUAGCCUUCC | 0.02
26 | GGUAGAGCUCAACACAGCGUGGCAAAGAGGCUGUGGCUAGAAUGCC | 0.15
27 | GGCAGAACUCAACGCAGCGUGGCAAAGUGGCUGUGGCUAUACUGCC | 0.16
28 | GGCAGAGCUCAACGCAGCGUGACAAAGUUGCUGUGGCUAGACUGCC | 0.09
29 | GGCAGAGCUCAACACCGCGUCACAAAGUGGCUGUGGCUAGACUGCC | 0.08
30 | GGCAGAGCUCACCACAGCGUGGCAAAGUGGCUGUGGUUUGACUGCC | 0
31 | GGCGGAGCUCAACCGCACGUGGCAAAGUGGCUGUGGCUAGACUGCC | 0.07
32 | GGUAGAGCUCGACACGGCGUGGCAAAGUGGCUGUGGCUUGCCUGCC | 0.03
33 | GGCAGAGCUCAACACAGCGUGGAAAAGUUGCUGUGGCCAGACUGCA | 0.12
34 | GGAAGAGCUCAGCACAGCGUGGCAAAGUGGCUGUGGCUAGACUGCA | 0.27
35 | GGCUGAGCUCAACACAGCGUGGCAAAGUGGGUGUGCAUAGAAUGCC | 0.02
36 | GGCAGAGCUCUCCACAGCGGGGCAAAUUGGCUGUGGCUAGACUGCC | 0.02
37 | GGCAGAGCUCAACACAGCGUGGCCCAAUGGCUGUGGCGAGACUGGC | 0.04
38 | UGCAGAGAUCAACACUGCGUGGCAAAGUGGCUGGGGCUAGACUGCC | 0.06

Row | Variant | self-cleavage
39 | GGCAGAGCUCAACACCGCGUGGCAAAAUGGGUGUGGCUAGACUGCC | 0
40 | GACAGAGCUCAACACAGCAUGGCAAAGUGGGUGGGGCUAGACUGCC | 0.08
41 | GACAGAGCUCAACUCAGCCUGGCAAAGUGGCUGUUGCUAGACUGCC | 0.77
42 | GGCAGAGCUCAACAUACCGUGGCCAAGUGUCUAUGGCUAGACUGAA | 0.01
43 | GGCAGAGCUCAACACAGCGAGGCAAAGUGGCUGUGGCUAGAAUCCC | 0.19
44 | GGCAGAGCUCAACACGGCGAGGCAAAGUGGAUGUGGCUAGACUGCC | 0.01
45 | GGCAGAGCUCAACACAGCGUGGCAAGGUGGCGGUGGCUAGAUUGCC | 0.04
46 | GGCAGAGCUCAACACAGCGUGGCAAAGAGGCUGUGGCUCGACCGCC | 0.1
47 | GGCAGAUCACAACACAGUGUGGCAACGUGCCUGUGGCUAGACUGCC | 0.17
48 | GGCAGAGCUCACCACAGCGUGGCAAAGAGGCUGUGGCUAUAGUGCC | 0
49 | AGCAGAGCUGAAUACAGCGUGGCAAAGUGGCUGUGGCUAGACUGCC | 0.1
50 | GGCAGAGCUCGACACAGCGUGGCAAAGUGGCUUUGGCUUCCCUGCC | 0.01
51 | GCCAGAGCUCAACACUGCGUGGCACAUUGGCUGUGGCUAGAUUGCC | 0.12
52 | GCCAGAGCUCAACACAGCAUGGCAAAGUGGCUGCGGCUAGCCUGUC | 0.02
53 | GGCAGAGCUAAACACAGCGUUGCAAAGGGGCUGUGGCUAGACUGCC | 0.06
54 | AGCAGACCUCAACACAGCGUGGCAAAGUGGCUGUGGCUAGACAGCC | 0.37
55 | GGCAGAGCUCAACACAGCGUGGGAAAGUGGCUGGGGCAAGACUGCC | 0.16
56 | GGUAGAGCUCAACACAGCGUGGCAAAGUGGCUGAGGCUAGGCUGUC | 0.01

From the RNAGym collection of RNA variant scans (doi:10.7554/elife.90254)
